These are yes or no findings as the source states them, for the method shown. Some binding calls cover weakened binding; strength is not graded here.
Assays:
Experiment in all cases: two-hybrid; yeast two-hybrid (ProQuest Two-Hybrid System); TnsD in pDBLeu (Gal4-DB), TnsC in pPC86 (Gal4-AD); read-out β-galactosidase activity; empty vectors gave 0.075
[1] = target: T1, TnsD 1 to 498 (E. coli (transposon Tn7)) (UniProt P13991)
T1 sequence: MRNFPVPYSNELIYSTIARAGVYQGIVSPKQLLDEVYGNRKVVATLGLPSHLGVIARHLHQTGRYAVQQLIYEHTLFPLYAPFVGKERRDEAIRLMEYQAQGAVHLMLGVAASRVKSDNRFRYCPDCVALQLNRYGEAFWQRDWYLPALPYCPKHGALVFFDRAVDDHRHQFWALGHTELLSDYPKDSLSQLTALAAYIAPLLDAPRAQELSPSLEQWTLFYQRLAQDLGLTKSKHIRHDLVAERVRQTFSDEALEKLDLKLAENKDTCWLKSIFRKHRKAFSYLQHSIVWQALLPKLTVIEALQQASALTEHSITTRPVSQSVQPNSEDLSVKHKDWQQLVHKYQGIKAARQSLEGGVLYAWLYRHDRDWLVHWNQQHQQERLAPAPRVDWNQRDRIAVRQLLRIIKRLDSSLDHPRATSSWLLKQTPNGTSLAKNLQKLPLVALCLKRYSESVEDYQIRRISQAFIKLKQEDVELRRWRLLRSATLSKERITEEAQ

[2] = target: T2, TnsD 1 to 490 (E. coli (transposon Tn7)) (UniProt P13991)
T2 sequence: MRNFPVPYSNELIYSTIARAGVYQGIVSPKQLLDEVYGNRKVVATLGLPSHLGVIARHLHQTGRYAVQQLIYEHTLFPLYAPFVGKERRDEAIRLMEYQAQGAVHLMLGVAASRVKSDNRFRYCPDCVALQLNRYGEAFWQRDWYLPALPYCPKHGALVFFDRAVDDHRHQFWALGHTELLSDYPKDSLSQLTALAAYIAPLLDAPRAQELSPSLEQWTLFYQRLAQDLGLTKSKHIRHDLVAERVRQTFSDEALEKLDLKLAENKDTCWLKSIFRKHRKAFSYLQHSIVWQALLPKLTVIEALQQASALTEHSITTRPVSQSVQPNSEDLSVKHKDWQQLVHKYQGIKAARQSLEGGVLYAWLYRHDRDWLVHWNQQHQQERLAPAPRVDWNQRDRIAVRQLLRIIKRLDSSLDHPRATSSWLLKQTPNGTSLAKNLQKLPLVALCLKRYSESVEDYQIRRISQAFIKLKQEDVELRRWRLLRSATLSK

[3] = target: T3, TnsD (22 to 507) (E. coli (transposon Tn7)) (UniProt P13991)
T3 sequence: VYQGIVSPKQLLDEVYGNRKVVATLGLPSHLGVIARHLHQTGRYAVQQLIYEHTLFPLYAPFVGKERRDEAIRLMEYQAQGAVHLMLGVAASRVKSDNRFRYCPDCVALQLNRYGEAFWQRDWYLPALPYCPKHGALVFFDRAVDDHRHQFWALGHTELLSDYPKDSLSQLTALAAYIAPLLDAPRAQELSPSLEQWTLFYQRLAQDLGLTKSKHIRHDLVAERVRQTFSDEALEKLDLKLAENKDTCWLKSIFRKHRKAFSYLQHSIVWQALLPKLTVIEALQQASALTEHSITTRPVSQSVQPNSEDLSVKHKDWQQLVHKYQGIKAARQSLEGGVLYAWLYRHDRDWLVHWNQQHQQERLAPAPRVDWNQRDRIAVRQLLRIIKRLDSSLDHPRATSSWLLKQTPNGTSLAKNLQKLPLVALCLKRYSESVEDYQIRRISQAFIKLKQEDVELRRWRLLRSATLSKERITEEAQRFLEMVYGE

[4] = target: T4, TnsD (8 to 507) (E. coli (transposon Tn7)) (UniProt P13991)
T4 sequence: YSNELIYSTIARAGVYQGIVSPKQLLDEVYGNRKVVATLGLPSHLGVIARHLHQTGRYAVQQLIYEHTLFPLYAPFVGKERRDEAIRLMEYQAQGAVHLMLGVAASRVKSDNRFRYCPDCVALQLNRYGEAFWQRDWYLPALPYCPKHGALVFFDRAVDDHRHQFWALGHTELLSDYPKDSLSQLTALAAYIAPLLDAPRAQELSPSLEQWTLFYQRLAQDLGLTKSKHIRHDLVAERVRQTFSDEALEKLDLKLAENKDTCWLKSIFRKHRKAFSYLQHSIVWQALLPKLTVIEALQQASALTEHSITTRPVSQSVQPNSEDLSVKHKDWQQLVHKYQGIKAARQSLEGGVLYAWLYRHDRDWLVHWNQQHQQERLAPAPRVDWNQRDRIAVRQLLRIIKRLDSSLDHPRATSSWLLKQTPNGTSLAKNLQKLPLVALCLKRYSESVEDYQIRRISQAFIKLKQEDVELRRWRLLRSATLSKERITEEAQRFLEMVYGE

[5] = target: T5, TnsD (12 to 507) (E. coli (transposon Tn7)) (UniProt P13991)
T5 sequence: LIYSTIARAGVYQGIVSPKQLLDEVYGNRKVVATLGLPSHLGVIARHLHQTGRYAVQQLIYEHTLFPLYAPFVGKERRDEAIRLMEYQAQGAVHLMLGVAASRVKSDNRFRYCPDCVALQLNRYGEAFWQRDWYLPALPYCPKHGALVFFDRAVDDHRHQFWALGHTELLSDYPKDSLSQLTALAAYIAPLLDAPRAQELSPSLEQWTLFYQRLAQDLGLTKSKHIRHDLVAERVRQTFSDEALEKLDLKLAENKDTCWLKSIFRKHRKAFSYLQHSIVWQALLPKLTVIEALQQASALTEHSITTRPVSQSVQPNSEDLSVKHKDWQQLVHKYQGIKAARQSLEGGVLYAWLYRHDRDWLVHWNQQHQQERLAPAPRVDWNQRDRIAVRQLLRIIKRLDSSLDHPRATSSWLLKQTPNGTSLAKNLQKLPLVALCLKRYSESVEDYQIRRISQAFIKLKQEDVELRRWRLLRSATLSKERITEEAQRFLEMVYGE

[6] = target: T6, TnsD (16 to 507) (E. coli (transposon Tn7)) (UniProt P13991)
T6 sequence: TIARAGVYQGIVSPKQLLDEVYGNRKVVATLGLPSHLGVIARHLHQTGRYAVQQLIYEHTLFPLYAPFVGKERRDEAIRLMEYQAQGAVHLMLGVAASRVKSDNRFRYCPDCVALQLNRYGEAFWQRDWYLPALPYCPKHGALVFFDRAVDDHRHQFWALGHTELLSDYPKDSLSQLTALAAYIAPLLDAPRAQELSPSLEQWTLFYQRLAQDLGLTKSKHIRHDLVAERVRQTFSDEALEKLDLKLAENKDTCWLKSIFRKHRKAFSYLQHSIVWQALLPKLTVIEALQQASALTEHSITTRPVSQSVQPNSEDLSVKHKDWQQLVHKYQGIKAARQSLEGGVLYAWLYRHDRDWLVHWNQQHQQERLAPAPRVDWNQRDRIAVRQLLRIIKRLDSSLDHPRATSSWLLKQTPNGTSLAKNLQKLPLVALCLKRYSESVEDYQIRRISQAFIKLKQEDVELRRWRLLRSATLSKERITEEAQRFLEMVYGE

[7] = target: T7, TnsD (1 to 436) (E. coli (transposon Tn7)) (UniProt P13991)
T7 sequence: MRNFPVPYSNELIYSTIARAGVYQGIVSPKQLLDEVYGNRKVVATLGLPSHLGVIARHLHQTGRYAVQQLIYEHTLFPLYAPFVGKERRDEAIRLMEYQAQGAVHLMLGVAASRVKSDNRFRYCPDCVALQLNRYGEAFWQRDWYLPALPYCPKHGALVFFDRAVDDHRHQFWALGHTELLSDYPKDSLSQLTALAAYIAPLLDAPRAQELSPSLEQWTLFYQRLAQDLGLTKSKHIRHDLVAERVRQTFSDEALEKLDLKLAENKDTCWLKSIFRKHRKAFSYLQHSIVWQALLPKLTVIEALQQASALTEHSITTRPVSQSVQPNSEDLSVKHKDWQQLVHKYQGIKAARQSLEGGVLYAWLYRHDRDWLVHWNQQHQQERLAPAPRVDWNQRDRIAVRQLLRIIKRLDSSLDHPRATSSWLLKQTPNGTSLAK

[8] = target: T8, TnsD 1 to 480 (E. coli (transposon Tn7)) (UniProt P13991)
T8 sequence: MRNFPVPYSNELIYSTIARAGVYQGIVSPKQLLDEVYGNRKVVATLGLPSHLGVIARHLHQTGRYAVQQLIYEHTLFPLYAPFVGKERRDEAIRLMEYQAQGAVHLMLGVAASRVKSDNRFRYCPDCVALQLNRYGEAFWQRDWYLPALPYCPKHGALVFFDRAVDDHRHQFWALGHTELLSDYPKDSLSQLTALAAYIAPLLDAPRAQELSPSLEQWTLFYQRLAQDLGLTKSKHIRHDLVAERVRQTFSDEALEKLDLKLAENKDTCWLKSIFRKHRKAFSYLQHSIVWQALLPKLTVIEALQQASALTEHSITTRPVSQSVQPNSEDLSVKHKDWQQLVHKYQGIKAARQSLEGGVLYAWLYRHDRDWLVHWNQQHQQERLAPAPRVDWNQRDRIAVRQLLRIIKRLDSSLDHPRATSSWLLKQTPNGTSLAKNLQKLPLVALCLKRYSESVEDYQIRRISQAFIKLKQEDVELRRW

binding [1]: binds
binding [2]: binds
binding [3]: no binding
binding [4]: no binding
binding [5]: no binding
binding [6]: no binding
binding [7]: no binding
binding [8]: binds
B1: TnsC (1 to 555) wt (natural protein, E. coli (transposon Tn7), UniProt P05846 1-555, looked up)
chain: MSATRIQAVYRDTGVEAYRDNPFIEALPPLQESVNSAASLKSSLQLTSSDLQKSRVIRAHTICRIPDDYFQPLGTHLLLSERISVMIRGGYVGRNPKTGDLQKHLQNGYERVQTGELETFRFEEARSTAQSLLLIGCSGSGKTTSLHRILATYPQVIYHRELNVEQVVYLKIDCSHNGSLKEICLNFFRALDRALGSNYERRYGLKRHGIETMLALMSQIANAHALGLLVIDEIQHLSRSRSGGSQEMLNFFVTMVNIIGVPVMLIGTPKAREIFEADLRSARRGAGFGAIFWDPIQQTQRGKPNQEWIAFTDNLWQLQLLQRKDALLSDEVRDVWYELSQGVMDIVVKLFVLAQLRALALGNERITAGLLRQVYQDELKPVHPMLEALRSGIPERIARYSDLVVPEIDKRLIQLQLDIAAIQEQTPEEKALQELDTEDQRHLYLMLKEDYDSSLLIPTIKKAFSQNPTMTRQKLLPLVLQWLMEGETVVSELEKPSKSKKVSAIKVVKPSDWDSLPDTDLRYIYSQRQPEKTMHERLKGKGVIVDMASLFKQAG
notes: TnsC, transposition protein of the bacterial transposon Tn7, residues 1 to 555 (full-length is 555 aa); TnsC was cloned into pPC86 (ProQuest Two-Hybrid System); also called full-length TnsC; source: yeast two-hybrid fusion

From PMC2918618, “Characterization of the TnsD-attTn7 complex that promotes site-specific insertion of Tn7” (Mobile DNA, 2010)
